Laboratory results reported in PubChem BioAssay AID504333 (National Center for Advancing Translational Sciences (NCATS), 2011).
In all, about 360,000 compounds went through this assay and about 16,000 (4.4%) were called active. The shares of active, inactive and inconclusive entries below differ from those in the screen. Calls follow the shape of the dose curve; as a rule, active = well fitted inhibition curve with a large enough effect; inconclusive = small, poorly fitted or top-dose-only effect; inactive = no such curve, though single readings can be large or run the other way. Potencies of inconclusive entries are doubtful fits and often do not repeat.

Biological target: Bromodomain adjacent to zinc finger domain protein 2B (Homo sapiens) (UniProt Q9UIF8)
Sequence of UniProt Q9UIF8 (Q9UIF8 whole entry, looked up, the tested form may be a part): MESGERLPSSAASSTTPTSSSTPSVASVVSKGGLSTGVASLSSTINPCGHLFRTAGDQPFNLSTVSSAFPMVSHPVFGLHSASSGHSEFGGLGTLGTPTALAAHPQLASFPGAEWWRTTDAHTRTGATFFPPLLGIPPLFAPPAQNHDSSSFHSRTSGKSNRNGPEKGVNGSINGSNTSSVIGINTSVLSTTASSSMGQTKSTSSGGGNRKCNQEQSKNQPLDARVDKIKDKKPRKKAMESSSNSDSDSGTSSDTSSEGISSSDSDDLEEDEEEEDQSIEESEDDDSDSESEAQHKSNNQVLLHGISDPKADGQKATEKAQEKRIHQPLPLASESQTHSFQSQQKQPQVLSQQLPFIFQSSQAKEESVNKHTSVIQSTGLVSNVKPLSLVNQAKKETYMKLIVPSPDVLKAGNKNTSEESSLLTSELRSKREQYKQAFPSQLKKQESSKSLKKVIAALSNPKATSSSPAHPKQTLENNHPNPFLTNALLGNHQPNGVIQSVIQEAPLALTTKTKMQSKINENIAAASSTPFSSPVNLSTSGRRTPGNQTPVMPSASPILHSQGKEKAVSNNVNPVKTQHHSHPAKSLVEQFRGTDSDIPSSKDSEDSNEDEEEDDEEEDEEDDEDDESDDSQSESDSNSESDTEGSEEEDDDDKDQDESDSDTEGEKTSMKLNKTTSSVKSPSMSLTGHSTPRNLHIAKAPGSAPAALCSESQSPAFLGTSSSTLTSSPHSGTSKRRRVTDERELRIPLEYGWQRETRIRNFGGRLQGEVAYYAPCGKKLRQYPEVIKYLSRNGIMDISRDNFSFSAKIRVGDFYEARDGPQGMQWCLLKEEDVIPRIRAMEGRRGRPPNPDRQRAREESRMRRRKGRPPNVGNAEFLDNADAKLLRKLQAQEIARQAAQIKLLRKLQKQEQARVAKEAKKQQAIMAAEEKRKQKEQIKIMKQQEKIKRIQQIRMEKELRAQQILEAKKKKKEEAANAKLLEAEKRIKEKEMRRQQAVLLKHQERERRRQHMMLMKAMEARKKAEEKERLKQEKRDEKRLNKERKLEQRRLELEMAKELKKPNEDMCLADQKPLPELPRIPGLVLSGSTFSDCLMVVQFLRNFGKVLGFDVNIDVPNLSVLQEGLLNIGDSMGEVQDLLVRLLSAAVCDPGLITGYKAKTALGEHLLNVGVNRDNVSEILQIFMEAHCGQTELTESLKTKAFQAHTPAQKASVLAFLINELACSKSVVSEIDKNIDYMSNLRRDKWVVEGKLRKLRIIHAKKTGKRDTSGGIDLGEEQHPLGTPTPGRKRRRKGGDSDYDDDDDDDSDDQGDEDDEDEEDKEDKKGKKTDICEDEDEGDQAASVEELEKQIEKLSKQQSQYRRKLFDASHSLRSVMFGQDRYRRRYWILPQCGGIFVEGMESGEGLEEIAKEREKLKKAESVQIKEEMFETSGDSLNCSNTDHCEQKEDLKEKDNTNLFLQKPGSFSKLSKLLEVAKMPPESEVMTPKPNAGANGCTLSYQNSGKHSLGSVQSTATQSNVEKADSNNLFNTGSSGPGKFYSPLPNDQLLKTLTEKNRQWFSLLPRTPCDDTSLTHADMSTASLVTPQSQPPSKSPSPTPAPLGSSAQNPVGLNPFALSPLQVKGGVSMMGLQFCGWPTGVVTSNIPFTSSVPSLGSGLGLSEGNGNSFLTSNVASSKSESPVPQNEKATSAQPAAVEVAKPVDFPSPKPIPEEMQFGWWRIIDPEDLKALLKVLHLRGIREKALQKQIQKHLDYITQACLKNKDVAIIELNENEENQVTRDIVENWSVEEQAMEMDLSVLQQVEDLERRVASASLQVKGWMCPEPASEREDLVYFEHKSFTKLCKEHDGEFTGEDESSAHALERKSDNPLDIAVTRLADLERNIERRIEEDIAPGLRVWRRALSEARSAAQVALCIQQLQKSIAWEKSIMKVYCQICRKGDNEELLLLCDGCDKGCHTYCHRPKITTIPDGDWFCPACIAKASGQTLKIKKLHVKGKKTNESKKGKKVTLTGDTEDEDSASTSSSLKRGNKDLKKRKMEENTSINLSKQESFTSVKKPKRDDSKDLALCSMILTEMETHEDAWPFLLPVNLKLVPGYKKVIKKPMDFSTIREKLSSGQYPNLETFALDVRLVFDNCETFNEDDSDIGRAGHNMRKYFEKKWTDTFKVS
Test: qHTS Assay for Inhibitors of BAZ2B; also: nearly all actives have a fitted effect of over 60% in size
Details: AlphaScreen BAZ2B-H3K14Ac peptide displacement; activity change, negative = inhibition: at 114 µM (top of the series)
Text: BAZ2B (bromodomain adjacent to zinc finger domain, 2B) belongs to a family of ubiquitously expressed bromodomain containing proteins, which biological function has not yet been elucidated. […] The interaction of BAZ2B with ISWI mediated by the BAZ1 motif has recently been described. […] The protocol is based on the AlphaScreen (PerkinElmer) displacement assay developed by NCGC [5], but uses the peptide ligand Biot-H3K14Ac, a high affinity binding partner for BAZ2B, in an AlphaScreen format. Although AlphaScreen has significant advantages with its utility in a variety of epigenetic target assays, the primary screening data provided in this deposition should be used with caution due to the prevalence of screening artifacts. The top compound concentration tested was 110uM in this assay, which increases number of actives and potential artifacts. An AlphaScreen counterscreen is highly recommended to be run against any putative actives to eliminate non-specific artifacts. Alternatively, one can use other AlphaScreen assays in PubChem to filter out promiscuous hits. Eberharter, A. et al. ACF1 improves the effectiveness of nucleosome mobilization by ISWI through PHD-histone contacts. The EMBO journal 23, 4029-4039. 2004. PMID: 15457208 [2] Jones, M.H. et al. A novel family of bromodomain genes. Genomics 63, 40-45. 2000. PMID: 10662543 [3] Yasgar, et al. Compound Management for Quantitative High-Throughput Screening. JALA. 2008 Apr;13(2):79-89. PMID: 18496600 [4] Inglese, et al. Quantitative high-throughput screening: a titration-based approach that efficiently identifies biological activities in large chemical libraries. Proc Natl Acad Sci. 1;103(31):11473-8. 2006. PMID: 16864780 [5] Quinn et al. A chemiluminescence-based method for identification of histone lysine methyltransferase inhibitors. Mol Biosyst 6(5): 782-8. 2010. PMID: 20567762 [6] Baell,Holloway. New substructure filters for removal of pan assay interference compounds (PAINS) from screening libraries and for their exclusion in bioassays. J Med Chem. 53(7):2719-40. 2010. PMID: 20131845 NIH Molecular Libraries Probe Production Network [MLPCN] NIH Chemical Genomics Center [NCGC] Structural Genomics Consortium (SGC) NIH Grant: 5U54 MH084681-02
To each well of a 1,536w plate, 2ul of BAZ2B protein (final 50nM) and 1ul biotinylated histone peptide acetylated at Lys14 [b-H3(5-23)K14Ac] (final 50nM) were added in 1x PBS buffer, pH 7.4, containing 0.01% Tween-20, using a nanoliter dispenser. Formation of a protein-peptide complex proceeded at room temperature for 30 min. A Kalypsys pin-tool was employed to transfer 23 nL of library compound solution in DMSO to each well. Following a 30 min incubation of the protein-peptide complex with compounds at room temperature, a mixture of 40 ug/mL each streptavidin-coated donor and nickel chelate acceptor AlphaScreen beads (final 10 ug/mL) were added in a 1ul dispense for a final volume of 4ul. A brief centrifugation followed (1000rpm, 1 min) and were then incubated protected from the light for 20 min at room temperature. Plates were read on an EnVision multilabel plate reader using the 1,536 plate HTS AlphaScreen aperture (excitation time 80 ms, measurement time 240 ms).
% is scaled to controls: 0 for no effect and ±100 for the full control effect; potency is read from the fitted curve at half-maximal effect; tags tell the direction and shape of the fitted curve.

| SMILES | Potency | activity change, negative = inhibition |
| --- | --- | --- |
| CCNC(=S)N/N=C/c1cn(Cc2ccc(F)cc2)c2ccccc12 | inconclusive: 35.5 µM [inhibitor, partial curve] |  |
| CN1CCc2c(sc(/N=C/c3c[nH]c4ccccc34)c2C#N)C1 | inconclusive: 50.1 µM [inhibitor, partial curve] |  |
| CCOc1cc(-c2nc(-c3ccccc3)c(-c3cc([N+](=O)[O-])ccc3C)[nH]2)ccc1O | inconclusive: 11.2 µM [inhibitor, full curve] |  |
| CC1CCc2[nH]c3ccc(C(=O)N(C)CC(=O)Nc4ccc(F)cc4)cc3c2C1 (centres undefined) | inconclusive: 44.7 µM [inhibitor, partial curve] |  |
| COc1ccccc1NC(=O)CC(NCCN(C)C)C(=O)O (centres undefined) | inconclusive: 89.1 µM [inhibitor, single point] |  |
| NC(=O)CSc1ncc2c(n1)-c1ccccc1N(Cc1ccccc1)S2(=O)=O |  | inactive: -5.82% |
| COc1cccc(/C=C2/SC(=S)N(CCCC(=O)Nc3ccc(O)cc3)C2=O)c1 | inconclusive: 7.08 µM [inhibitor, full curve, poor fit] |  |
| N#Cc1ccccc1S(=O)(=O)N1CCN(C(=O)c2cc3c(s2)CCC3)CC1 | inconclusive: 89.1 µM [inhibitor, single point] |  |
| COc1cccc(C(=O)NCc2ccc3c(c2)cc(C)n3C)c1 | inconclusive: 28.2 µM [inhibitor, full curve, poor fit] |  |
| CCN(CC)c1ccc(NC(=O)COC(=O)CCC(=O)c2cccs2)cc1 | active: 44.7 µM |  |
| Cc1cc(C)cc(OCC(=O)N/N=C/c2ccccn2)c1 | active: 79.4 µM |  |
| O=C1Nc2cc(Cl)c(Cl)cc2N(O)N1c1ccccc1 | inconclusive: 79.4 µM [inhibitor, partial curve] |  |
| Cn1c(C(=O)OCC(=O)NCc2ccco2)cc2sccc21 | inconclusive: 89.1 µM [inhibitor, single point] |  |
| COc1ccc(CCNC(=O)C2CC(=O)N(c3ccc(C)cc3)C2)cc1OC (centres undefined) |  | inactive: -0.688% |
| Cc1ccc(Cn2c(C(C)Nc3nc(-c4ccc(C)cc4)cs3)nc3cc(Cl)c(Cl)cc32)cc1 (centres undefined) | active: 39.8 µM |  |
| COc1cc(OC)c(NC2=CC(=O)C(=O)c3ccccc32)cc1Cl | inconclusive: 44.7 µM [inhibitor, partial curve] |  |
| Cc1oc(C)c2c(=O)ccc3c(c12)OC(N)=C(C#N)C3c1ccccc1 (centres undefined) | inconclusive: 89.1 µM [inhibitor, single point] |  |
| CCOc1ccc(Sc2cc(C(=O)NCc3ccc(F)cc3)c3ccccc3n2)cc1 |  | inactive: 41.6% |
| O=C(O)c1ccc(N/N=C/c2ccc(-c3cc(Cl)ccc3Cl)o2)cc1 | active: 79.4 µM |  |
| Cc1ccc2c(CNCc3cccs3)c(C(=O)O)n(Cc3ccc(F)cc3)c2c1 | inconclusive: 70.8 µM [inhibitor, partial curve] |  |
| COC(=O)c1ccc(Cn2c(=O)cc(C)c3c(C)nn(C)c32)cc1 |  | inactive: 21.7% |
| S=c1[nH]nc(-c2ccco2)n1/N=C/c1ccc(Cl)cc1 | inconclusive: 79.4 µM [inhibitor, single point] |  |

| SMILES | Potency | activity change, negative = inhibition |
| --- | --- | --- |
| CCCCN(C/C=C/c1ccccc1OC)Cc1ccccc1 | inconclusive: 89.1 µM [inhibitor, single point] |  |
| COc1cc(NCCC(=O)c2cccs2)c(OC)cc1Cl | active: 39.8 µM |  |
| O=C(c1ccccc1)c1cnc2ccc(Cl)cc2c1N1CCOCC1 | inconclusive: 100 µM [inhibitor, single point] |  |
| Cc1sc2nc(CN(C(=O)NCc3ccccc3)C3CCCC3)[nH]c(=O)c2c1C | inconclusive: 70.8 µM [inhibitor, single point] |  |
| OCc1ccnc2c(O)cccc12 | active: 1.41 µM |  |
| COc1cc2c(cc1OC)/C(=C/C(=O)c1ccccc1)NCC2 | inconclusive: 50.1 µM [inhibitor, partial curve] |  |
| CCCc1ccc(Oc2c(-c3ccc(O)c(C)c3O)n[nH]c2C)cc1 | inconclusive: 31.6 µM [inhibitor, full curve, poor fit] |  |
| COc1cc(-c2noc(C)c2/C=C/c2ccc(C(=O)O)cc2)cc(OC)c1OC | inconclusive: 89.1 µM [inhibitor, single point] |  |
| COc1ccc(Cn2c(=O)[nH]c3cc(C(=O)Nc4ccc(N5CCN(C)CC5)cc4)ccc32)cc1 | inconclusive: 39.8 µM [inhibitor, partial curve] |  |
| CCOC(=O)CC(N)c1cccc([N+](=O)[O-])c1 (centres undefined) | inconclusive: 79.4 µM [inhibitor, single point] |  |
| O=C1NC(=O)C(c2cn(-c3ccccc3)nc2-c2ccc(F)cc2)N1 (centres undefined) |  | inactive: -0.986% |
| CCN(CC(=O)NCc1ccc(F)cc1)C(=O)CN1CCN(c2ccc(OC)cc2)CC1 | active: 17.8 µM |  |
| Cc1cc(C(=O)COC(=O)c2cccnc2Cl)c(C)n1-c1c(C)n(C)n(-c2ccccc2)c1=O |  | inactive: -4.76% |
| Cc1cc(C(=O)COC(=O)CCc2nc3ccccc3c(=O)[nH]2)c(C)n1CC1CCCO1 (centres undefined) | inconclusive: 70.8 µM [inhibitor, partial curve] |  |
| Cc1oc2c(c1C(=O)c1ccc(Cl)cc1)C(=O)C(=O)c1ccccc1-2 | inconclusive: 89.1 µM [inhibitor, single point] |  |
| COc1cc(OC)c(OC)cc1CN1CCN(Cc2ccc(SC)cc2)CC1 | active: 39.8 µM |  |
| O=C(O)c1cccc2cccnc12 | inconclusive: 89.1 µM [inhibitor, single point] |  |
| CCc1ccc(OCC(=O)NNC(=S)NC(=O)C2CC2)c(Br)c1 | inconclusive: 89.1 µM [inhibitor, single point] |  |
| O=C(O)[C@H](Cc1ccccc1)N1Cc2ccccc2C1=O | inconclusive: 89.1 µM [inhibitor, single point] |  |
| Cc1cc[n+](-c2[nH]c(=O)sc2/C=N/N=C(\[O-])c2ccncc2)cc1C | inconclusive: 89.1 µM [inhibitor, single point] |  |
| COc1ccc(Nc2nc(-c3cc4cccc(OC)c4oc3=O)cs2)cc1 | inconclusive: 79.4 µM [inhibitor, single point] |  |
| O=[N+]([O-])c1ccc(O)c2cccnc12 | inconclusive: 79.4 µM [inhibitor, single point] |  |
